According to the supplement of paper PMC8728848:
Some of the results follow.

Tests used:
Test in all cases: glycan array binding signal (z-score within array); higher = stronger binding
Conditions in all cases: glycan notation: IUPAC condensed, linker removed
[1] = target: Fuc(a1-2)[GalNAc(a1-3)]Gal(b1-4)[Fuc(a1-3)]GlcNAc
How it was run: (§1)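 Glycan array binding is given as a within-array Z-score, which can be read as non-binding when negative. The arrays, 3228 of them, came from the Consortium for Functional Glycomics database and were retained only where the protein sequence was available. Z-scores were averaged across arrays of the same protein sequence at different concentrations or buffers and across linkers.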

[2] = target: Fuc(a1-2)[GalNAc(a1-4)]Gal(b1-4)GlcNAc
How it was run: as §1

Fuc(a1-3)GlcNAc = target: Fuc(a1-3)GlcNAc
How it was run: as §1

[3] = target: Fuc(a1-3)[Gal(b1-4)]Glc6S
How it was run: as §1

[4] = target: Fuc(a1-3)[Gal(b1-4)]GlcNAc
How it was run: as §1

[5] = target: Fuc(a1-3)[Gal(b1-4)]GlcNAc(b1-3)Gal(b1-3)[Fuc(a1-4)]GlcNAc
How it was run: as §1

[6] = target: Fuc(a1-3)[Gal(b1-4)]GlcNAc(b1-4)Gal(b1-4)[Fuc(a1-3)]GlcNAc
How it was run: as §1

[7] = target: Fuc(a1-3)[Gal(b1-4)]GlcNAc(b1-4)Gal(b1-4)[Fuc(a1-3)]GlcNAc(b1-4)Gal(b1-4)[Fuc(a1-3)]GlcNAc
How it was run: as §1

[8] = target: Fuc(a1-3)[Gal(b1-4)]GlcNAc6S
How it was run: as §1

[9] = target: Fuc(a1-3)[Gal3S(b1-4)]Glc
How it was run: as §1

[10] = target: Fuc(a1-3)[Gal3S(b1-4)]Glc6S
How it was run: as §1

[11] = target: Fuc(a1-3)[Gal3S(b1-4)]GlcNAc
How it was run: as §1

[12] = target: Fuc(a1-3)[Gal3S(b1-4)]GlcNAc6S
How it was run: as §1

[13] = target: Fuc(a1-3)[GalNAc(b1-4)]Gal(b1-4)GlcNAc
How it was run: as §1

Fuc(a1-4)GlcNAc = target: Fuc(a1-4)GlcNAc
How it was run: as §1

Fuc(b1-3)GlcNAc = target: Fuc(b1-3)GlcNAc
How it was run: as §1

Gal(a1-2)Gal = target: Gal(a1-2)Gal
How it was run: as §1

Gal(a1-3)Gal = target: Gal(a1-3)Gal
How it was run: as §1

Gal(a1-3)Gal(b1-3)Glc = target: Gal(a1-3)Gal(b1-3)Glc
How it was run: as §1

Gal(a1-3)Gal(b1-3)GlcNAc = target: Gal(a1-3)Gal(b1-3)GlcNAc
How it was run: as §1

Gal(a1-3)Gal(b1-4)GlcNAc = target: Gal(a1-3)Gal(b1-4)GlcNAc
How it was run: as §1

[14] = target: Gal(a1-3)Gal(b1-4)[Fuc(a1-3)]GalNAc
How it was run: as §1

Gal(a1-3)GlcNAc = target: Gal(a1-3)GlcNAc
How it was run: as §1

[15] = target: Gal(a1-3)[Gal(a1-4)]Gal(b1-4)GlcNAc
How it was run: as §1

Gal(a1-4)Gal(b1-4)Gal = target: Gal(a1-4)Gal(b1-4)Gal
How it was run: as §1

Gal(a1-4)Gal(b1-4)GalNAc = target: Gal(a1-4)Gal(b1-4)GalNAc
How it was run: as §1

Gal(a1-4)GlcNAc = target: Gal(a1-4)GlcNAc
How it was run: as §1

Gal(a1-6)Glc = target: Gal(a1-6)Glc
How it was run: as §1

Gal(b1-2)Gal = target: Gal(b1-2)Gal
How it was run: as §1

Gal(b1-3)Gal = target: Gal(b1-3)Gal
How it was run: as §1

B1: STA (Solanum tuberosum) (protein)
chain: NASAPLPYPQCGLKKGGGKCIKTGECCSIWGWCGTTSDYCAPGYCQKQCPGPYPQGRCGWQANGKSCPTGTGQCCSNAGWCGTTSDYCAPNNCQSQCKLPPPPPSPPPPPPSPPPPSPPPPPPSPPPPSPSPPPPPPSPPPPSPPPPSPPPPSPPPPPSPSPPPPPPSPPPPPPPLPYPQCGMKKGGGKCIKTGECCSIWGWCGTTSKYCSPGYCQMQCPDPYPEGRCGWQANGKSCPTGTGQCCSNAGWCGTTSAYCAPVNCQAQCNTTTLTSPIKNRMRGIESFMLNVV
- glycan array binding signal (z-score) [1]: -0.497
- glycan array binding signal (z-score) [2]: 2.13
- glycan array binding signal (z-score) (Fuc(a1-3)GlcNAc): -0.511
- glycan array binding signal (z-score) [3]: -0.497
- glycan array binding signal (z-score) [4]: -0.509
- glycan array binding signal (z-score) [5]: -0.509
- glycan array binding signal (z-score) [6]: -0.472
- glycan array binding signal (z-score) [7]: -0.513
- glycan array binding signal (z-score) [8]: -0.451
- glycan array binding signal (z-score) [9]: -0.504
- glycan array binding signal (z-score) [10]: -0.495
- glycan array binding signal (z-score) [11]: -0.491
- glycan array binding signal (z-score) [12]: -0.423
- glycan array binding signal (z-score) [13]: 1.92
- glycan array binding signal (z-score) (Fuc(a1-4)GlcNAc): -0.501
- glycan array binding signal (z-score) (Fuc(b1-3)GlcNAc): -0.502
- glycan array binding signal (z-score) (Gal(a1-2)Gal): -0.488
- glycan array binding signal (z-score) (Gal(a1-3)Gal): -0.506
- glycan array binding signal (z-score) (Gal(a1-3)Gal(b1-3)Glc): -0.508
- glycan array binding signal (z-score) (Gal(a1-3)Gal(b1-3)GlcNAc): -0.499
- glycan array binding signal (z-score) (Gal(a1-3)Gal(b1-4)GlcNAc): 3.27
- glycan array binding signal (z-score) [14]: -0.507
- glycan array binding signal (z-score) (Gal(a1-3)GlcNAc): -0.506
- glycan array binding signal (z-score) [15]: 2.02
- glycan array binding signal (z-score) (Gal(a1-4)Gal(b1-4)Gal): -0.498
- glycan array binding signal (z-score) (Gal(a1-4)Gal(b1-4)GalNAc): 1.89
- glycan array binding signal (z-score) (Gal(a1-4)GlcNAc): -0.507
- glycan array binding signal (z-score) (Gal(a1-6)Glc): -0.5
- glycan array binding signal (z-score) (Gal(b1-2)Gal): -0.498
- glycan array binding signal (z-score) (Gal(b1-3)Gal): -0.503
